Whole data set: some 33,000 sequences, median “E-score (-0.5 to 0.5)” near -0.036, cut for the highest 2% near 0.37. This is one part of the list.
Molecular target: T1, Yer064c (UniProt P40041)
T1 sequence: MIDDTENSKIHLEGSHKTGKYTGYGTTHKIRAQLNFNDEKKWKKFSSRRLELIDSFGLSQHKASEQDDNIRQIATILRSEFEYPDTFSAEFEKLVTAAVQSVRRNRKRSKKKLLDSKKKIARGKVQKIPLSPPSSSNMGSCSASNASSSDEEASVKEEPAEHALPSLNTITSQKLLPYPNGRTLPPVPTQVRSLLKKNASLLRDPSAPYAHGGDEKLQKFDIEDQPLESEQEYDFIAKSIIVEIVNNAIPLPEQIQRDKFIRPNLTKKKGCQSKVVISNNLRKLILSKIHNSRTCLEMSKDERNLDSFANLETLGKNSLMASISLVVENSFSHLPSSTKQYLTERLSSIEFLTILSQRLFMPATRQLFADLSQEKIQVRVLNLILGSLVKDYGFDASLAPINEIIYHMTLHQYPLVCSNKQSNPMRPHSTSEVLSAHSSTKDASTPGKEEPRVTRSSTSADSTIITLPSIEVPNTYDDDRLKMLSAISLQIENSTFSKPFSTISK
Assay: PBM E-score (8-mer binding enrichment) (E-score (-0.5 to 0.5)); higher = stronger / more preferred TF binding; most listed sequences are background and not binding sites
Conditions: protein concentration: 200 nM; construct: GST-full length
Summary of the method: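 GST-tagged yeast TFs (full-length or DNA-binding domain) were made by PURExpress in vitro transcription/translation and applied at about 100-200 nM to universal all-10-mer Agilent arrays. The arrays were made double-stranded by primer extension, on fresh or once-stripped slides. Bound protein was detected with fluorescent anti-GST, and scans were normalised with masliner. Each ungapped eight-base word, pooled with its reverse complement, received an E-score (modified Wilcoxon-Mann-Whitney statistic) from the Universal PBM Analysis Suite.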

| Sequence | PBM E-score |
| --- | --- |
| AGTTTACC | 0.0731 |
| GCAGCGCA | -0.0625 |
| CTTTATCA | 0.0842 |
| CACAACTC | 0.083 |
| ATGCATCA | 0.102 |
| AAACGCCC | -0.245 |
| GCATCTCA | -0.107 |
| CAAACAAG | -0.00935 |
| ATACAAGG | 0.0972 |
| AATGTGTA | 0.222 |
| GGAGACAC | 0.139 |
| CACTATAC | -0.184 |
| AGGGACGG | -0.262 |
| CGCCGCGC | -0.0918 |
| GAGTGAAC | -0.0116 |
| CAGAAGCC | -0.14 |
| TATCGCAA | 0.0863 |
| AGCTCACG | 0.0265 |
| ACAAAGCA | -0.137 |
| ACTTAACA | 0.178 |
| CGCTACAC | -0.0776 |
| ATACCTGC | -0.274 |

| Sequence | PBM E-score |
| --- | --- |
| CGAGACAA | -0.138 |
| ATCGTAAT | 0.0292 |
| AGCTAATG | 0.125 |
| CCATTCAA | 0.0772 |
| GATGTGCA | 0.0566 |
| ATGTTTTC | -0.00164 |
| ATCAAATA | 0.195 |
| CAAGAACG | -0.0323 |
| ATGACGTA | 0.0562 |
| ATGGTTGC | -0.105 |
| ACCCAGCA | -0.0529 |
| ATCATCTA | 0.239 |
| ATCCTAAT | 0.112 |
| ATAGTGAC | 0.124 |
| CATTGGCG | -0.0381 |
| CCTTGTTC | -0.169 |
| CACCCAGA | -0.0135 |
| GCAGCGAA | 0.0639 |
| CTACAGAC | -0.184 |
| AGGAACAG | -0.203 |
| ATTCTAGG | 0.0267 |
| ATCTGAGG | -0.097 |

| Sequence | PBM E-score |
| --- | --- |
| GAATTGTC | -0.211 |
| CGACCCAA | -0.0634 |
| AGCAGAGG | -0.163 |
| ACGTTCTC | -0.143 |
| CTCCCGCC | -0.067 |
| CGCTTCAC | -0.277 |
| GGGGAACA | -0.21 |
| ATACCCGA | -0.0409 |
| ACTCTTGC | 0.251 |
| AGAGTAGG | -0.0527 |
| AGGGTCCA | -0.142 |
| ATGATAGG | 0.039 |
| AGTCAAAT | 0.412 |
| GCATACGC | -0.232 |
| AGCAGTAA | 0.00571 |
| CAGAGCGA | 0.163 |
| GTGGTTTA | 0.0183 |
| TTATTCAA | 0.161 |
| AGGGGCGA | -0.106 |
| AACCCTCG | -0.0322 |
| GCGCGCCA | -0.204 |
| ACATCTAA | 0.0285 |

| Sequence | PBM E-score |
| --- | --- |
| CCTCGCAA | -0.185 |
| CTCCGGAG | 0.115 |
| GACTTAGA | 0.347 |
| ACATTGAG | 0.029 |
| CAACAAAA | -0.00719 |
| TTACATAA | 0.0751 |
| CACCCTTC | -0.028 |
| TCCGCGGA | 0.148 |
| AGGAAACG | -0.21 |
| TGAGGCAA | -0.0948 |
| CCCGTAAC | -0.194 |
| ACTCTATG | 0.122 |
| ACGGTCAG | -0.109 |
| ACTGTGAA | 0.0208 |
| ACTCGATC | 0.144 |
| CACTTGCA | 0.0364 |
| CAAGGCGA | 0.00644 |
| GGTGAGAA | -0.14 |
| TCCAGAAA | -0.023 |
| CAGTTACG | -0.098 |

Source: the supplement of paper PMC3334620
